The record followed here is PMC6193622.

Protein sequences, listed by entry. Tags and fused reporters are not part of them.
UniProt Q9BXW9: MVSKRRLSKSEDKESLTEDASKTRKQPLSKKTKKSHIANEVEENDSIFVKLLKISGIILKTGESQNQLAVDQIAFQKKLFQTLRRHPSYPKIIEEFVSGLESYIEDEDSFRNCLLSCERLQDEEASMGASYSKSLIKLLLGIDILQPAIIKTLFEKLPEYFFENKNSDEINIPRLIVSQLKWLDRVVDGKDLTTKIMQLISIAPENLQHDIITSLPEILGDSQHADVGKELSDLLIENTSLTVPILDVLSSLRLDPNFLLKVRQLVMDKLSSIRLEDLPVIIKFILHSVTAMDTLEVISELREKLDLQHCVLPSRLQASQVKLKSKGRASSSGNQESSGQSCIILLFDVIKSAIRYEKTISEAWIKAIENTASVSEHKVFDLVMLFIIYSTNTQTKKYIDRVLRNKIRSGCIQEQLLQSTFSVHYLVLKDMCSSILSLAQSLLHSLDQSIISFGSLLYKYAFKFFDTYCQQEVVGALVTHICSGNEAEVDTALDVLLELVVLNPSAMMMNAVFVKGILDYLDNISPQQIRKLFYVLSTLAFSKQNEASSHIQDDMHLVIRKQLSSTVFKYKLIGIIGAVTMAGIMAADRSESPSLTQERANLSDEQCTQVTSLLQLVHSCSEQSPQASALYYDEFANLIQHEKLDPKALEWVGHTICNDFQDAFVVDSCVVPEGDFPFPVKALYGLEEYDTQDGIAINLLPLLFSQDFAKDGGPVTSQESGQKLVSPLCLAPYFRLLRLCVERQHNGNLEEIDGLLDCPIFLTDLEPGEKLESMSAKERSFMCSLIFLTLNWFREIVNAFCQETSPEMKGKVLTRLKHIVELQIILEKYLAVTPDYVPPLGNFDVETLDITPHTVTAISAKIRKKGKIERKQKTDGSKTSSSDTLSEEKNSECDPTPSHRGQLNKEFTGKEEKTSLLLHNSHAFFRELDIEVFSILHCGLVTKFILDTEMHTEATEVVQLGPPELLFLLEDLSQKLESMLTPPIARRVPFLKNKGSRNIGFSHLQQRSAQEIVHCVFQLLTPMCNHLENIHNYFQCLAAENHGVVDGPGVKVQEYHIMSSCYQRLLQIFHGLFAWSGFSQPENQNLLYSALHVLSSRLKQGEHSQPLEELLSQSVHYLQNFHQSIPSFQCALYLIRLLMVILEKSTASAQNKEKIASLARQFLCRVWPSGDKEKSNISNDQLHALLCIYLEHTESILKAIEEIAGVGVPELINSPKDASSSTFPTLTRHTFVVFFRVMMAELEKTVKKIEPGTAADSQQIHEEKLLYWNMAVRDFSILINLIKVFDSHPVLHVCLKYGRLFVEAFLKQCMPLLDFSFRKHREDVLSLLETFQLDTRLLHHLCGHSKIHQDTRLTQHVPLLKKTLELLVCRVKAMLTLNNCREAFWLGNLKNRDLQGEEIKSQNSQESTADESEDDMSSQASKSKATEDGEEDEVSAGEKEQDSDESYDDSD

These are yes or no findings as the source states them, for the method shown. For some assays here: In cells and extracts the contact can be indirect. Some entries that bind do so weakly or less than the wild type. Tags and fused reporters may be left off the sequences shown.

Test [1] has as its target T1, 6xHis-UHRF1 purified from Sf9 cells (human) (UniProt Q96T88).
T1 sequence: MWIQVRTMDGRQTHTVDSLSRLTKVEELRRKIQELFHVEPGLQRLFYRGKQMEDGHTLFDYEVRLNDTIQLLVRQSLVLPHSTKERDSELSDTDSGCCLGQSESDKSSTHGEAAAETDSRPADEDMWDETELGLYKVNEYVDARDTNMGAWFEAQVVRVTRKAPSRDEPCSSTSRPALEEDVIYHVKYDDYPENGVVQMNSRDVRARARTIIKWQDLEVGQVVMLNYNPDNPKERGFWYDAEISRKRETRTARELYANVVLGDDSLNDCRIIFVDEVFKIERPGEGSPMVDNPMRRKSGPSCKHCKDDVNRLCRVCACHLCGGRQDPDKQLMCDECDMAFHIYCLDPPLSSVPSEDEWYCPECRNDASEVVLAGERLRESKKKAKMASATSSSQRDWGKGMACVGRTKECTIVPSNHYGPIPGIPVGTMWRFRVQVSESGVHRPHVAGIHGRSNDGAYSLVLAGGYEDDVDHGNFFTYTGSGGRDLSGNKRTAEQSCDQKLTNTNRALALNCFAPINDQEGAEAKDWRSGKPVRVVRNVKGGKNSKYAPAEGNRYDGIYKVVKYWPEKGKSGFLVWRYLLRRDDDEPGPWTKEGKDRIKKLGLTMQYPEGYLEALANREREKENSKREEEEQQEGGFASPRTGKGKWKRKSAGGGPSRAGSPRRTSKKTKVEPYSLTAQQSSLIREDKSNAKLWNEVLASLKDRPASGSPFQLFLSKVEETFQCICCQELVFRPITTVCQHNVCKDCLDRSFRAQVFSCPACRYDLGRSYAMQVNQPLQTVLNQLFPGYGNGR
Briefly: pull-down; in vitro binding assay; 6xHis-UHRF1 purified using NTA-agarose, immunoblotting for FANCD2; both purified. On the technique in general: Immunoblotting shows a protein as a band on a membrane.

In test [2] the target is T2, Flag-UHRF1 expressed in HeLa.shUHRF1 cells (human) (UniProt Q96T88).
T2 sequence: T1 sequence
Briefly: co-IP; cells treated with TMP/UVA, 1 hour recovery; lysis with Benzonase and the cross-linker DSP (quenched with Tris), extraction in 300mM KCl; M2 anti-Flag agarose, elution with Flag peptide; immunoblotting.

Take “Flag-HA-FANCD2 purified from Sf9 cells (from UniProt Q9BXW9 1-1451)”: the binding entry in test [1] is reported as “binds”.

Regarding “endogenous FANCD2 (HeLa) (from UniProt Q9BXW9 1-1451)”, the binding result in test [2] is “binds”.
